Some of the results follow. Cleavage of a single-stranded DNA pool by Rep nickase domains was read by sequencing (3 µM enzyme, 1 h, 37 °C); shown is the middle of each 90-letter strand. Values are log2 of uncut reads against the no-enzyme pool; more negative means more cut, near 0 not cut, and no call is made. Because reads are shares of a total, they shift together; values above 0 arise when much of the pool is cut.
How the values were obtained:
Test in all cases: uncleaved DNA left, log2 of reads against the no-enzyme library (log2 ratio); higher = less cleavage (more negative = more Rep cleavage of the k-mer); sequences stand for … in CTCGTCCG…ACCGGAGA
[1] = test system: T1, Rep nickase domain of Muscovy duck circovirus
T1 sequence (residues 1-111, tag not shown): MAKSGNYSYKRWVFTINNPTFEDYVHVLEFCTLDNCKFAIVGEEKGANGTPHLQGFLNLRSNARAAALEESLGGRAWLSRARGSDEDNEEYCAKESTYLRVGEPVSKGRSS
Procedure: (§1)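 A pool of 90-nt single-stranded DNAs with seven random bases just before the constant AC of the nick site (name = the seven bases) was cut by 3 µM recombinant His6-SUMO-tagged Rep nickase domain (300 nM DNA, 50 mM HEPES pH 8.0, 50 mM NaCl, 1 mM MnCl2, 1 h, 37 °C, three replicates). Uncut DNA was amplified and sequenced.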

[2] = test system: T2, Rep nickase domain of banana bunchy top virus
T2 sequence (residues 1-94, tag not shown): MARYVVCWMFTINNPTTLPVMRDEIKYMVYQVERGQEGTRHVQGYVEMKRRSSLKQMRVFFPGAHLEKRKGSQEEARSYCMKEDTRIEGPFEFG
Procedure: as §1

[3] = test system: T3, Rep nickase domain of cabbage leaf curl virus
T3 sequence (residues 1-116, tag not shown): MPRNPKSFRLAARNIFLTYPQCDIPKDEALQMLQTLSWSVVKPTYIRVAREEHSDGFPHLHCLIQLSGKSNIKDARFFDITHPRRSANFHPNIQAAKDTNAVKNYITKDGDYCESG
Procedure: as §1

[4] = test system: T4, Rep nickase domain of chickpea chlorotic dwarf virus
T4 sequence (residues 1-124, tag not shown): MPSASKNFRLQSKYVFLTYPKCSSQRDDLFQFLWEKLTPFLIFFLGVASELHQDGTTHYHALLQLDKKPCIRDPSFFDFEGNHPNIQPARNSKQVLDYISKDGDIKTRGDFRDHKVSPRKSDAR
Procedure: as §1

[5] = test system: T5, Rep nickase domain of faba bean necrotic yellows virus
T5 sequence (residues 1-98, tag not shown): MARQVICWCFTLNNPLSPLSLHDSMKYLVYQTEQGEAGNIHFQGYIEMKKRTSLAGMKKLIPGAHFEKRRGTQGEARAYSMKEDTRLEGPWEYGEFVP
Procedure: as §1

[6] = test system: T6, Rep nickase domain of maize striate mosaic virus
T6 sequence (residues 1-117, tag not shown): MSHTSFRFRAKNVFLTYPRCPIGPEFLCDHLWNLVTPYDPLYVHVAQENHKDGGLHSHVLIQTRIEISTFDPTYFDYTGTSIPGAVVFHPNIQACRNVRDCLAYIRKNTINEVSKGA
Procedure: as §1

[7] = test system: T7, Rep nickase domain of porcine circovirus 2
T7 sequence (residues 2-116, tag not shown): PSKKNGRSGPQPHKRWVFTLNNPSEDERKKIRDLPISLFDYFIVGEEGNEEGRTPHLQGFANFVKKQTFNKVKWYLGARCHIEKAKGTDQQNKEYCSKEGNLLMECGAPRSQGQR
Procedure: as §1

[8] = test system: T8, Rep nickase domain of tomato golden mosaic virus
T8 sequence (residues 1-124, tag not shown): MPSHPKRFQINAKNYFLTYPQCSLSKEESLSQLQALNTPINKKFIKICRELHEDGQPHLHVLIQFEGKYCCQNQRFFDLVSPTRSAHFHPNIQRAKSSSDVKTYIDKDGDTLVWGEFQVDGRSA
Procedure: as §1

[9] = test system: T9, Rep nickase domain of tomato yellow leaf curl virus
T9 sequence (residues 1-136, tag not shown): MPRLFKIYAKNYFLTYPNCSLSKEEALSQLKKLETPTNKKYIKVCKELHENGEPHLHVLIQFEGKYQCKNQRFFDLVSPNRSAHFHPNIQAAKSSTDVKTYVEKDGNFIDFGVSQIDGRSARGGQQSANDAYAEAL
Procedure: as §1

[10] = test system: T10, Rep nickase domain of wheat dwarf virus
T10 sequence (residues 1-137, tag not shown): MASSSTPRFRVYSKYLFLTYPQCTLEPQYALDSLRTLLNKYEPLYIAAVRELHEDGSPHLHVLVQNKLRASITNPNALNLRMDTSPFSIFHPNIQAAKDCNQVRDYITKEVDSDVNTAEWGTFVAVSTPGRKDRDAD
Procedure: as §1

| Sequence | uncleaved DNA left (log2) [1] | uncleaved DNA left (log2) [2] | uncleaved DNA left (log2) [3] | uncleaved DNA left (log2) [4] | uncleaved DNA left (log2) [5] | uncleaved DNA left (log2) [6] | uncleaved DNA left (log2) [7] | uncleaved DNA left (log2) [8] | uncleaved DNA left (log2) [9] | uncleaved DNA left (log2) [10] |
| --- | --- | --- | --- | --- | --- | --- | --- | --- | --- | --- |
| CAGGGTG | 0.138 | 0.134 | -0.282 | -0.253 | 0.0831 | -0.684 | 0.243 | 0.0815 | 0.128 | -0.00489 |
| CTTCAAC | -0.147 | -0.054 | -0.0967 | -1.71 | -0.057 | -0.842 | -0.0692 | -0.0488 | -0.0607 | -0.037 |
| TCTATAT | 0.157 | -0.164 | 0.00881 | -0.601 | 0.0972 | -0.425 | -0.423 | -0.14 | -0.00159 | -0.0688 |
| ACTCCTG | 0.00632 | -0.0803 | -0.278 | -0.217 | -0.0311 | -0.552 | 0.0649 | 0.0612 | 0.0251 | -0.0043 |
| AGTGCAC | 0.0576 | 0.11 | -0.019 | 0.299 | -0.00839 | -0.144 | 0.0644 | 0.0619 | 0.0597 | 0.00182 |
| GGACAGA | 0.195 | 0.301 | 1.13 | 2.22 | 0.232 | 2.48 | 0.378 | 0.292 | 0.137 | 0.361 |
| CCAGACC | 0.0357 | 0.0597 | 0.188 | 0.295 | 0.19 | -0.0218 | 0.0771 | 0.124 | -0.0108 | 0.0846 |
| CGCCCAA | 0.211 | 0.111 | 0.101 | -0.0102 | 0.183 | -0.0974 | -0.0204 | 0.0864 | 0.0539 | 0.174 |
| CCATCAG | 0.0479 | 0.134 | -0.399 | 0.593 | 0.0512 | -0.0293 | 0.319 | 0.11 | 0.216 | -0.0152 |
| GAAACTA | 0.027 | 0.0617 | 0.221 | -0.669 | -0.114 | 0.912 | 0.0587 | 0.0462 | 0.0621 | 0.131 |
| GCCGCGA | -0.0213 | -0.146 | -0.829 | 0.0249 | -0.194 | -0.549 | 0.0674 | -0.0833 | -0.198 | -0.212 |
| TCGAAGA | 0.0683 | -0.134 | 0.0942 | 0.216 | -0.0196 | -0.531 | 0.177 | 0.0689 | -0.0241 | -0.0465 |
| ATGTTAT | -0.0444 | 0.0166 | 0.22 | -0.248 | 0.0618 | 0.0726 | -3.37 | 0.0726 | 0.142 | 0.145 |
| ACACGAG | 0.0158 | -0.0315 | 0.151 | 1.16 | -0.0169 | -0.119 | 0.0376 | -0.0248 | -0.0977 | -0.0119 |
| CGCCATT | -0.0421 | -0.234 | -0.0248 | -1.07 | -0.157 | -0.367 | -0.812 | -0.0977 | 0.0713 | 0.0191 |
| CTCGTTA | 0.0443 | -0.181 | -0.322 | -1.09 | -0.163 | -0.882 | -0.134 | 0.0392 | -0.101 | -0.169 |
| GAAAACG | 0.0342 | -0.0458 | -0.764 | -0.404 | 0.0162 | -0.947 | 0.141 | -0.0245 | 0.0192 | -0.0637 |
| TCAGGCT | 0.00961 | 0.0277 | 0.25 | 0.573 | -0.00754 | 0.907 | 0.0633 | 0.132 | -0.0933 | 0.0365 |
| ACCCATC | 0.0194 | -0.0416 | -0.14 | -0.0306 | 0.177 | -0.579 | 0.00597 | 0.0431 | -0.157 | -0.0566 |
| GTTTTCG | 0.0988 | 0.0729 | -0.474 | -0.392 | 0.0824 | -0.582 | 0.118 | -0.0108 | -0.0023 | -0.00666 |
| CAATAGC | -0.0356 | -0.026 | -0.897 | -1.26 | -0.0921 | -1.19 | 0.157 | -0.022 | 0.0729 | -0.078 |
| AAGCTTT | -0.0186 | 0.0133 | -0.0187 | -2.22 | -0.0177 | 0.742 | -3.32 | 0.193 | 0.0572 | -0.0346 |
| TACAACA | -0.131 | -0.0304 | -0.373 | -2.66 | 0.0345 | -0.556 | -0.138 | -0.00764 | -0.012 | -0.00035 |
| ACCGGCG | 0.065 | 0.0938 | 0.233 | 1.64 | 0.08 | 1.66 | 0.189 | 0.0563 | 0.0845 | -0.00228 |
| CAGTCGG | 0.00771 | 0.0726 | 0.341 | 1.03 | -0.0521 | 0.945 | -0.052 | 0.177 | -0.117 | -0.0495 |
| GTCCAAA | -0.000254 | 0.0914 | 0.285 | 1.07 | -0.0242 | 1.7 | 0.0328 | 0.122 | 0.143 | 0.279 |
| ACTTGGT | -0.198 | -0.15 | -0.384 | -0.811 | -0.0322 | -1.05 | -1 | 0.00326 | -0.0685 | -0.107 |
| CAGTCGT | 0.0923 | -0.4 | -0.645 | -1.02 | -0.159 | -0.94 | -3.18 | -0.082 | 0.0945 | -0.0975 |
| TGGTACG | -0.0806 | 0.0269 | -0.691 | -0.541 | -0.0254 | -0.954 | 0.0131 | -0.0488 | -0.097 | -0.0734 |
| ATCACAG | -0.0119 | 0.0293 | -0.797 | -0.532 | 0.059 | -1.21 | 0.131 | 0.0779 | 0.00827 | 0.0135 |

From the supplement of paper PMC7826260
